# Laboratory results taken from PubChem BioAssay AID504832 (National Center for Advancing Translational Sciences (NCATS), 2011).
# Screen size: about 310,000 compounds; about 18,000 (5.8%) were called active. The inconclusive results got no clear call from the source; some entries with a clear call stand among them for comparison. Calls follow the shape of the dose curve; as a rule, active = well fitted inhibition curve with a large enough effect; inconclusive = small, poorly fitted or top-dose-only effect, or another doubt; inactive = no such curve, though single readings can be large or run the other way. Potencies of inconclusive entries are left out as doubtful fits.
# Assay: Primary qHTS for delayed death inhibitors of the malarial parasite plastid, 48 hour incubation
# Details: P. falciparum luciferase growth in erythrocytes; series mostly up to 28.7 µM; activity change, negative = inhibition: at the top concentration
# Procedure, shortened: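 Erythrocytes infected with P. falciparum carrying an integrated firefly luciferase reporter (2% hematocrit, 0.1% parasitemia final) were exposed to compounds in RPMI 1640 with 0.5% Albumax at 37 C, 5% CO2. Growth inhibition was scored as reduced luminescence.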
# % is scaled to controls: 0 for no effect and ±100 for the full control effect; potency is read from the fitted curve at half-maximal effect; tags tell the direction and shape of the fitted curve.
SMILES,Potency,"activity change, negative = inhibition"
COC(=O)C1=C(c2cccc(OCc3ccccc3)c2)C[C@@H]2CC[C@H]1N2C(=O)NCc1ccc(C(C)(C)C)cc1,active: 3.7 µM,–
COc1ccc(/C=C/CN2CCN(CC(C)C)C(CCO)C2)cc1 (stereo not drawn),"inconclusive [inhibitor, single point]",–
COc1cc(/C=N/N(C)S(=O)(=O)c2ccc(C)cc2)cc([N+](=O)[O-])c1O,–,inactive: -2.23%
Cc1ccc(NCCC(=O)c2cccc([N+](=O)[O-])c2)c(C)c1,–,inactive: 3.5%
CC(C)c1ccc(/C=C(\NC(=O)c2ccccc2)C(=O)NCCCn2ccnc2)cc1,"inconclusive [inhibitor, single point]",–
COc1ccc(CCNC(=O)c2ccccc2NS(=O)(=O)c2c(F)cccc2F)cc1,"inconclusive [inhibitor, partial curve, poor fit]",–
O=C(N/N=C/c1c(O)n(-c2ccccc2)c(=S)[nH]c1=O)c1ccccc1,–,inactive: 23.6%
CN(NC(=O)c1ccccc1)c1nc2ccccc2nc1C(F)(F)F,"inconclusive [inhibitor, single point]",–
COc1ccc(N2CC(O)=C(c3nc(-c4ccccc4)cs3)C2=N)cc1,"inconclusive [inhibitor, partial curve, poor fit]",–
FC(F)(F)c1cc(N2CCN(Cc3ccccc3)CC2)c2ccccc2n1,"inconclusive [inhibitor, partial curve, poor fit]",–
O=[N+]([O-])c1ccc(N2CCN(S(=O)(=O)c3ccccc3)CC2)cc1NCc1cccnc1,active: 9.28 µM,–
Cc1nc(NC(=O)CC(C)C)sc1-c1csc(Nc2ccc(Cl)cc2Cl)n1,"inconclusive [inhibitor, partial curve, poor fit]",–
COc1ccc(/C=C2\N=C(C)N(c3ccc4ccccc4c3)C2=O)cc1OC,"inconclusive [inhibitor, single point]",–
CC(C)(Cc1ccc(O)cc1)NC(=O)CC(=O)N=Nc1c(O)[nH]c2cc(Br)ccc12,"inconclusive [inhibitor, single point]",–
COc1ccc(/C=C/C(=O)NCc2ccccn2)cc1OC,"inconclusive [inhibitor, single point]",–
N#C/C(=C\c1c[nH]c2ccccc12)C(=O)NCC1CCCO1 (stereo not drawn),–,inactive: 41.9%
CCN(CC)C(=O)C(=O)c1cn(CCOc2ccccc2)c2ccccc12,"inconclusive [inhibitor, partial curve, poor fit]",–
CCc1ccc2[nH]c(=O)c(CN(CCN3CCOCC3)C(=O)Nc3ccccc3F)cc2c1,"inconclusive [inhibitor, single point]",–
CCOCCCNC(=O)CSCc1nc(-c2ccc(SC)cc2)oc1C,–,inactive: -3.03%
O=C(O)CC12CC3CC(C1)CC(n1ncc(NCc4ccc(F)cc4Cl)c(Cl)c1=O)(C3)C2,"inconclusive [inhibitor, single point]",–
O=C(c1ccc(-n2cccc2)cc1)N1CCCCC1,–,inactive: 57%
COc1ccc(NC(=O)COc2ccc(N(C)S(=O)(=O)c3ccc(Cl)cc3)cc2)cc1,active: 11.7 µM,–

SMILES,Potency,"activity change, negative = inhibition"
Cc1cc(C)c[n+](CC(=O)c2ccc(-c3ccccc3)cc2)c1,"inconclusive [inhibitor, partial curve]",–
O=C(NCCc1ccccc1)C1CCC(=O)N(Cc2cccc(C(F)(F)F)c2)C1 (stereo not drawn),–,inactive: 1.88%
COc1ccccc1N(C)S(=O)(=O)c1ccc(C(=O)NC(C)c2ccccc2)cc1 (stereo not drawn),"inconclusive [inhibitor, single point]",–
COc1ccc(CN(C)CC(=O)Nc2ccccc2-c2ccccc2)c(OC)c1,active: 10.4 µM,–
Cc1nnc(NC(=O)c2ccc(S(=O)(=O)N3CCCCCC3)cc2)o1,"inconclusive [inhibitor, single point]",–
CCC1Oc2ccc(Cl)cc2N(CC(=O)O)C1=O (stereo not drawn),"inconclusive [inhibitor, full curve, poor fit]",–
CCOc1ccc2nc(NC3=NC(c4ccc(OC)cc4)CC(=O)N3)nc(C)c2c1 (stereo not drawn),"inconclusive [inhibitor, single point]",–
COc1ccc(-n2c(SCC(N)=O)nc3sc4c(c3c2=O)CCN(C)C4)cc1,"inconclusive [inhibitor, partial curve]",–
Cc1ccc(F)cc1NC(=O)CCOc1ccccc1,–,inactive: 0.481%
CCOc1ccc(S(=O)(=O)Nc2cccc(C(=O)NCC(c3ccco3)N(C)C)c2)cc1 (stereo not drawn),–,inactive: 0.642%
COc1ccc(C(=O)C2CCCN(Cc3cnc(N4CCCC4)s3)C2)cc1OC (stereo not drawn),"inconclusive [inhibitor, single point]",–
CC(CC(=O)O)CC(=O)NNC(=O)c1cccc(Br)c1 (stereo not drawn),"inconclusive [inhibitor, single point]",–
CCOC(=O)C1CCN(c2nc(-c3ccc(C)cc3)nc3ccccc23)CC1,"inconclusive [inhibitor, partial curve]",–
C#CCOCCOCCOCCNc1nc(N2CCOCC2)nc(N2CCN(C(=O)[C@H]([C@@H](C)O)n3cc(CCCCN)nn3)CC2)n1,–,inactive: -3.32%
CC1CN(CCCCOc2ccc(F)cc2)CC(C)O1 (stereo not drawn),–,inactive: 0.439%
COC(=O)[C@@H](Cc1c[nH]c2ccccc12)NC(=O)CCC(=O)c1ccc(F)cc1,"inconclusive [inhibitor, single point]",–
O=C(CSc1nnc(-c2ccncc2)n1Cc1ccccc1)NC1CCCc2ccccc21 (stereo not drawn),"inconclusive [inhibitor, single point]",–
Cc1ccc(/C=N/Nc2ccccn2)s1,–,inactive: 93.7%
Nc1ccc2nc(-c3ccc(N)c(Cl)c3)[nH]c2c1,"inconclusive [inhibitor, single point]",–
COC(=O)Cn1c(C)nc([N+](=O)[O-])c1Br,"inconclusive [inhibitor, partial curve, poor fit]",–
O=C(NCc1cccs1)c1cc(-c2ccncc2)nc2ccc(Br)cc12,"inconclusive [inhibitor, single point]",–
